Assay [1] deals with recombinant CaM6 (untagged) (UniProt Q03509). Put plainly: condition: 240 pmol peptide with 240 pmol CaM in 20 μl; native gel or EMSA; 240 pmol CaM with an equal amount of synthetic peptide in 20 μl 25 mM Tris-HCl pH 7.5, 100 μM CaCl2, 60 min, room temperature; non-denaturing PAGE with 100 μM CaCl2; both purified.
Assay [2] has the same target. Description: native gel or EMSA; CaM (240 pmol) with different amounts of LL22 or pLL22 peptide in the ratios indicated, 20 μl, 60 min, then native PAGE; both purified.
Assay [3] has the same target. Description: native gel or EMSA; 240 pmol CaM with an equal amount of synthetic peptide in 20 μl 25 mM Tris-HCl pH 7.5, 100 μM CaCl2, 60 min, room temperature; non-denaturing PAGE with 100 μM CaCl2; both purified. In general terms: Mobility shift assays separate free from complexed probe on a gel.
The target is the same in assay [4]. Description: native gel or EMSA; as a9 but with 2 mM EGTA in the reaction and the gel (absence of Ca2+); both purified.

Results are given in words; binding and its absence hold for the method and conditions named. Some entries that bind do so weakly or less than the wild type.

Turning to RILSKKGNRYSEKDAAVVVRQMLKVAG [RG27 peptide (predicted CaM-binding site of CPK28)], in assay [1], the binding result is recorded as “no binding”.
Still for that read-out and setting: the entry for RKPWATISDSAKDFVKKLLVK [RK21 peptide (C-terminal end of the CPK28 kinase domain)] is “no binding”.
LRQFVRYSRLKQFALRALASTL (phosphoserine at Ser-360) [pLL22 peptide (LL22 phosphorylated at Ser-360)]: in assay [2], the binding entry was “binds”.
In the case of FVKKLLVKDPRARLTAAQALSHAWVR [FR26 peptide (C-terminal end of the CPK28 kinase domain)], the binding entry in assay [1] is on record as “no binding”.
As for LKWKKLLKLLKKLLKLG [W3 peptide (high affinity CaM-binding peptide)], the binding result in assay [3] is on record as “binds”.
Take FIKPGKRFHDIVGSAYYVA [FA19 peptide (predicted CaM-binding site of CPK28)]: the binding result in assay [1] is listed as “no binding”.
Turning to LRQFVRYSRLKQFALRALASTL (source: synthetic peptide (LifeTein)) [LL22 peptide (CPK28 autoinhibitory junction)], the binding entry in assay [4] was “no binding (condition: in the absence of Ca2+ (2 mM EGTA))”; in assay [3], “binds”.

For the origin of these results see article PMC5354511, “Autophosphorylation-based Calcium (Ca^2+) Sensitivity Priming and Ca^2+/Calmodulin Inhibition of Arabidopsis thaliana Ca^2+-dependent Protein Kinase 28 (CPK28)*^([image sbox.jpg])^♦” (The Journal of Biological Chemistry, 2017).
